Measured values: patent US20150160214A1 (MAYO FOUNDATION FOR MEDICAL EDUCATION AND RESEARCH, published 2015)

B1: Recombinant human vWF A1-1261 ([…]), N-terminal truncated variant (ligand)
chain: not shown
notes: Lacks the linker […]; also called truncated A1
B2: vWF A1 domain variant […] ([…]) (ligand)
chain: not shown
notes: Type 2M vWD variant; native-like; also called A1437T (2M); not shown: 6xHis-Tag (pQE-9 vector)
B3: vWF A1 domain variant […] ([…]) (ligand)
chain: not shown
notes: Type 2B vWD variant; native-like; also called R1341Q (2B); not shown: 6xHis-Tag (pQE-9 vector)
B4: vWF A1 domain variant […] ([…]) (ligand)
chain: not shown
notes: Type 2B vWD variant; natively structured; also called R1306Q (2B); not shown: 6xHis-Tag (pQE-9 vector)
B5: vWF A1 domain variant […] ([…]) (ligand)
chain: not shown
notes: Type 2B vWD variant; natively structured; also called I1372S (2B); not shown: 6xHis-Tag (pQE-9 vector)
B6: vWF A1 domain variant […] ([…]) (ligand)
chain: not shown
notes: Type 2B vWD variant; molten globule; also called H1268D (2B); not shown: 6xHis-Tag (pQE-9 vector)
B7: vWF A1 domain variant […] ([…]) (ligand)
chain: not shown
notes: Type 2B vWD variant; molten globule; also called P1337L (2B); not shown: 6xHis-Tag (pQE-9 vector)
B8: vWF A1 domain variant […] ([…]) (ligand)
chain: not shown
notes: Type 2B vWD variant; natively structured; also called I1309V (2B); not shown: 6xHis-Tag (pQE-9 vector)
B9: vWF A1 domain variant […] ([…]) (ligand)
chain: not shown
notes: Type 2B vWD variant; molten globule; also called V1316M (2B); not shown: 6xHis-Tag (pQE-9 vector)
B10: vWF A1 domain variant […] ([…]) (ligand)
chain: not shown
notes: Type 2B vWD variant; molten globule; also called V1314D (2B); not shown: 6xHis-Tag (pQE-9 vector)
B11: vWF A1 domain variant […] ([…]) (ligand)
chain: not shown
notes: Type 2B vWD variant; natively structured; also called R1308L (2B); H1308L (2B)
B12: vWF A1 domain variant […] ([…]) (ligand)
chain: not shown
notes: Type 2M vWD variant; molten globule; also called R1374H (2M); not shown: 6xHis-Tag (pQE-9 vector)
B13: vWF A1 domain variant […] ([…]) (ligand)
chain: not shown
notes: Type 2M vWD variant; natively structured; also called G1324S (2M); not shown: 6xHis-Tag (pQE-9 vector)
B14: reduced and carboxyamidated (RCAM) A1 domain (vWF […]) (ligand)
chain: not shown
modifications: the cysteines of the […] disulfide bond reduced (DTT) and carboxyamidated (iodoacetamide)
notes: Molten globule model of the intermediate state; not shown: N-terminal 6xHis-Tag
B15: vWF A1 domain variant […] ([…]) (ligand)
chain: not shown
notes: Type 2M vWD variant; molten globule; also called S1285F (2M); 51285F; not shown: 6xHis-Tag (pQE-9 vector)
B16: vWF A1 domain variant […] ([…]) (ligand)
chain: not shown
notes: Type 2M vWD variant; molten globule; also called F1369I (2M); not shown: 6xHis-Tag (pQE-9 vector)
B17: vWF A1 domain variant […] ([…]) (ligand)
chain: not shown
notes: Type 2M vWD variant; molten globule; also called E1359K (2M); not shown: 6xHis-Tag (pQE-9 vector)
B18: vWF A1 domain variant […] ([…]) (ligand)
chain: not shown
notes: Type 2M vWD variant; molten globule; also called I1425F (2M); not shown: 6xHis-Tag (pQE-9 vector)

biological target: T1, platelet glycoprotein Ib alpha (GPIbα) on platelets of healthy donors (human, UniProt P07359 17-652); experiment: parallel-plate flow chamber, His-tagged A1 captured on a Cu2+ chelate slide, platelets from citrated whole blood, video tracking
T1 construct: whole, on cells; The assays use whole platelets; On platelets GPIbα is part of the GPIb-IX-V complex; also called GP1bα; GPIba
Procedure: (§1) Determination of platelet pause times. […] The shear was increased incrementally and 1 min movies were recorded at 25 frames/s in phase contrast with 232 pixel binning on a Zeiss Axiocam MRm camera attached to a Zeiss Axio Observer D1 inverted microscope. Tracking analysis was performed using Mediacybernetics ImagePro Premier§. The resulting X-Y coordinate data for each platelet track was differentiated into instantaneous velocities using a Savitzky-Golay algorithm (Savitzky:1964) with a five data point window size and a second-order polynomial implemented into a Mathamatica notebook. These platelet tracks were retained for statistical analysis if the platelet was present for at least 1 s and travelled a total distance greater than 1 lm. Distance travelled in pixels was converted to lm given the camera pixel size=6.45 μm², pixel binning, and microscope magnification=400×. Pause times were determined by the amount of time (seconds) a platelets velocity was =0±0.13 μm/s, within the noise.

Binder	binding result
B1	binds

biological target: T1, platelet glycoprotein Ib alpha (GPIbα) …; experiment: mean platelet pause time on His-captured A1 variant, parallel plate flow chamber, 1500 s^-1
Procedure: as §1, with “noise. Pause times for all platelet tracks are reported as the mean of the medians. Examples of this analysis for individual platelets and for multiple platelets are provided in the Supporting Information.” for “noise.”

Binder	Pause Time 1500 s^-1 [s]
B2	0.28
B3	0.94
B4	0.95
B5	1.03
B6	1.26
B7	1.56
B8	2.14
B9	2.94
B10	3.53
B11	0.29

biological target: T1, platelet glycoprotein Ib alpha (GPIbα) …; experiment: flow chamber, platelet pause time at 1500 s^-1 on surface-captured A1 domain

Binder	binding result
B12	no binding
B13	no binding

biological target: T1, platelet glycoprotein Ib alpha (GPIbα) …; experiment: Cu2+ chelate Vena8 biochip flow chamber, distance travelled by one platelet at 1025 s^-1
Procedure: A 5 μM concentration of protein was immobilized in the biochip and citrated whole blood was perfused at a shear rate of 800 s−1 (FIG. 11B). This perfusion was followed by TBS buffer and after red blood cells cleared the channel, the shear was decremented to 100 s−1 or incremented to 9000 s−1 every two minutes at logarithmic intervals. Surface bound platelets were allowed to equilibrate at a given shear rate for 50 s and a 60 s video at 24 frames per second was recorded and analyzed as described in the methods. The internal channel surface lacking immobilized A1 domain was completely inert to platelets.
The determination and analysis of platelet pause times and instantaneous translocation velocities over surface captured A1 and RCAM A1 was performed as previously described (Tischer:2013). Here, the inventor used the Cellix Mims Evo syringe pump controlled by VenaFluxAssay (www.cellixltd.com). […] After allowing the flow chamber to equilibrate for 50 s at each shear rate, 1 min movies were recorded at 24 frames per second in phase contrast at 200× magnification with 2×2 pixel binning on a Zeiss AxioCam Mrm camera (6.45 μm/px) attached to a Zeiss Axio Observer.D1 inverted microscope. […]

Binder	binding result
B14	binds

biological target: T1, platelet glycoprotein Ib alpha (GPIbα) …; experiment: Cu2+ chelate Vena8 biochip flow chamber, platelet pause time at 1500 s^-1

Binder	binding result
B15	no binding
B16	no binding
B17	no binding
B18	no binding
